Experimental data reported in the RNAGym collection of RNA variant scans (doi:10.1101/gad.245936.114).
Variants at the floor of the assay are shown more often than the library holds them.

B1: tRNA (parent)
chain: CUCUCGGUAGCCAAGUUGGUUUAAGGCGCAAGACUUUAAUUUAUCACUACGAAAUCUUGAGAUCGGGCGUUCGACUCGCCCCCGGGAGAUUUUUUCCUCGAGCAA

Variants of: B1
Assay: nonsense suppression (GFP-seq) (ratio to wild type); higher = more function; SUP4oc tRNA, yeast GFP reporter sort-seq
Procedure, shortened: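 To measure nonsense suppression, tRNA variants from a library carrying ~3% random mutations were integrated into the yeast genome alongside RFP and a GFP ochre reporter under galactose control. Growth took place in raffinose/galactose medium supplemented with 80 mg/L adenine, followed by sorting into GFP/RFP bins and Illumina sequencing of each bin (phred ≥30). For each variant with ≥100 reads and ≥30 cells, the bin median GFP/RFP values were weighted by its estimated cell share per bin and referenced to the unmutated parent tRNA.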

Variant | nonsense suppression
A14G G15U U57C | ≤ 0.026
A14G G18A | ≤ 0.026
A14G G18A U21C A30G A33G C79A C82A A89U | ≤ 0.026
A14G G18A U70G A87U | ≤ 0.026
A14G G18U | ≤ 0.026
A14G G19A A31U G66C A74C G78U | ≤ 0.026
A14G G19C C29A C56A G88C | ≤ 0.026
A14G G19C C56A | ≤ 0.026
A14G G19U A23G A30G C75U C82U | ≤ 0.026
A14G G19U A31U C64U | ≤ 0.026
A14G G19U G86C | ≤ 0.026
A14G G25C U76G C77U | ≤ 0.026
A14G G25U | ≤ 0.026
A14G G26C A31U | ≤ 0.026
A14G G26C G61A G65A G67C U70G A89G | ≤ 0.026
A14G G26U U57C | ≤ 0.026
A14G G28A G59U | ≤ 0.026
A14G G32C U55C | ≤ 0.026
A14G G32U C75G C82G | ≤ 0.026
A14G G61U G67U A87C | ≤ 0.026
A14G G61U U70C | ≤ 0.026
A14G G66A | ≤ 0.026
A14G G67C U71G C72U | ≤ 0.026
A14G G67U | ≤ 0.026

Variant | nonsense suppression
A14G G69U | ≤ 0.026
A14G G69U A74C | ≤ 0.026
A14G G73A | ≤ 0.026
A14G G73C | ≤ 0.026
A14G G78A | 0.0272
A14G G78C | ≤ 0.026
A14G G85A G86C | ≤ 0.026
A14G G86U | ≤ 0.026
A14G U16A C72G G88C | ≤ 0.026
A14G U16A U20A G59U U63G U70G | ≤ 0.026
A14G U16C | ≤ 0.026
A14G U16C A24U A33G U71C G84U | ≤ 0.026
A14G U16G C64U | ≤ 0.026
A14G U16G C77A | ≤ 0.026
A14G U17A G59U | ≤ 0.026
A14G U20A U35G U55G | ≤ 0.026
A14G U20C G32U G61U | ≤ 0.026
A14G U21G | ≤ 0.026
A14G U21G A89C | ≤ 0.026
A14G U35A | ≤ 0.026
A14G U35C G73C | ≤ 0.026
A14G U55G | ≤ 0.026
A14G U57C U63A C81G | ≤ 0.026
A14G U71A | ≤ 0.026

Variant | nonsense suppression
A14G U71A A87U | ≤ 0.026
A14G U71G | ≤ 0.026
A14G U76C | ≤ 0.026
A14U A23U A60G G65C | ≤ 0.026
A14U A24C A31C | ≤ 0.026
A14U A24G A31U | ≤ 0.026
A14U A30G A31G A33C U57G G65A G69U G85U G86A | ≤ 0.026
A14U A30G U55A | ≤ 0.026
A14U A31C G67U | ≤ 0.026
A14U A31G C56A G69A | ≤ 0.026
A14U A31G G84A | ≤ 0.026
A14U A31G U35G G61C | ≤ 0.026
A14U A31U A87U | ≤ 0.026
A14U A33C G67C A87C | ≤ 0.026
A14U A33G | ≤ 0.026
A14U A33U C34G G59C | ≤ 0.026
A14U A54C C68A G73C G84A | 0.202
A14U A62C | ≤ 0.026
A14U A62G | ≤ 0.026
A14U A89G | ≤ 0.026
A14U C27A G78C | ≤ 0.026
A14U C29A U35A U55C U63A G69C | ≤ 0.026
A14U C29G A31C | ≤ 0.026
A14U C29U U55G C83G | ≤ 0.026

Variant | nonsense suppression
A14U C34G | ≤ 0.026
A14U C34G G78C | ≤ 0.026
A14U C64G G88C | ≤ 0.026
A14U C72G G86A | ≤ 0.026
A14U C80A | ≤ 0.026
A14U C81A | ≤ 0.026
A14U C82G | ≤ 0.026
A14U G15A A31C G59C | ≤ 0.026
A14U G15A G86A | ≤ 0.026
A14U G15U A23U C68G | ≤ 0.026
A14U G18A A54G | ≤ 0.026
A14U G18A G19A | ≤ 0.026
A14U G18C C80U | ≤ 0.026
A14U G18U | ≤ 0.026
A14U G18U U70A C81A | ≤ 0.026
A14U G19C A54C | ≤ 0.026
A14U G19C C27A A89U | ≤ 0.026
A14U G25A A54G G65C G69C | ≤ 0.026
A14U G25C C27U | ≤ 0.026
A14U G25U G32C A89C | ≤ 0.026
A14U G26A G28U C29U U57A A74C | ≤ 0.026
A14U G26A U57A | ≤ 0.026
A14U G26U G78A | ≤ 0.026
A14U G28C A62G U76C G78A | ≤ 0.026

Variant | nonsense suppression
A14U G28U A30U U55C C82U G86U | ≤ 0.026
A14U G32C | ≤ 0.026
A14U G32C G88U | ≤ 0.026
A14U G32U A60U | ≤ 0.026
A14U G59C | ≤ 0.026
A14U G59C C79A G88U | ≤ 0.026
A14U G61C C79U | ≤ 0.026
A14U G61C G69C C80A G85A | ≤ 0.026
A14U G66A | ≤ 0.026
A14U G67C | ≤ 0.026
A14U G69C | ≤ 0.026
A14U G69C A87U | ≤ 0.026
A14U G69C C79A | ≤ 0.026
A14U G69U C72G G73U G88U | ≤ 0.026
A14U G73A A74G | ≤ 0.026
A14U G78C | ≤ 0.026
A14U G78C G84A G86C | ≤ 0.026
A14U G85U G88U | ≤ 0.026
A14U G86A | ≤ 0.026
A14U U16A C80G | ≤ 0.026
A14U U16A U63A | ≤ 0.026
A14U U16C A33C G84A | ≤ 0.026
A14U U16C G73C A89U | ≤ 0.026
A14U U16C U20C | ≤ 0.026

Variant | nonsense suppression
A14U U16G | ≤ 0.026
A14U U20A | ≤ 0.026
A14U U20A G32A A33U G61A | ≤ 0.026
A14U U20C A24G C75G | ≤ 0.026
A14U U20C G26A A31G | ≤ 0.026
A14U U21G A23C A31G A62U | ≤ 0.026
A14U U21G G84U | ≤ 0.026
A14U U35A U71G C77A | ≤ 0.026
A14U U35A U76G C81U | ≤ 0.026
A14U U57G U63C | ≤ 0.026
A14U U58A C75G | ≤ 0.026
A14U U63C G73A | ≤ 0.026
A14U U70C | ≤ 0.026
A14U U71C | ≤ 0.026
A14U U76A | ≤ 0.026
A14U U76G | ≤ 0.026
G15A A24G A60C | ≤ 0.026
G15A A24G C29G A60C | ≤ 0.026
G15A A30C G59U C79A C83U | ≤ 0.026
G15A A30U | ≤ 0.026
G15A A31C A33C G65A | ≤ 0.026
G15A A31U G65C | ≤ 0.026
G15A A31U U35C U76G C83G | ≤ 0.026
G15A A33C G65C | ≤ 0.026

Variant | nonsense suppression
G15A A33G G61C | ≤ 0.026
G15A A33U A54U A89U | ≤ 0.026
G15A A60C | ≤ 0.026
G15A A60U G61U C79U C83A | ≤ 0.026
G15A A89U | ≤ 0.026
G15A C27U A60U | ≤ 0.026
G15A C34A U71A C75G | ≤ 0.026
G15A C34G | ≤ 0.026
G15A C77A | ≤ 0.026
G15A C81U | 0.0386
G15A G18U C81U C82A | ≤ 0.026
G15A G19C U55C | ≤ 0.026
G15A G19U | ≤ 0.026
G15A G19U A23U G28A U55C U58G G59C | ≤ 0.026
G15A G19U A30U G65C | ≤ 0.026
G15A G25U | ≤ 0.026
G15A G25U C56G | ≤ 0.026
G15A G25U U55C | ≤ 0.026
G15A G26A | ≤ 0.026
G15A G26C A33U U57A | ≤ 0.026
G15A G28A C75A | 0.24
G15A G59C A87C | ≤ 0.026
G15A G59C U76A G85C | ≤ 0.026
